# PubChem BioAssay AID588453 (National Center for Advancing Translational Sciences (NCATS), 2011)
# Several values for one entry are separate records, joined by “and”; a condition that tells them apart may be missing. Identical values can stand only once. In all, about 390,000 compounds went through this assay and about 4,000 (1%) were called active. Inconclusive means that the source gave no clear call. Such entries were picked first, then a sample of the others. Calls come from the whole dose curve; as a rule, active = well fitted inhibition curve with a large enough effect; inconclusive = small, poorly fitted or top-dose-only effect; inactive = no such curve, though single readings can be large or run the other way. Potencies of inconclusive entries are doubtful fits and often do not repeat.
# Target: Thioredoxin reductase 1, cytoplasmic (Rattus norvegicus) (UniProt O89049)
# UniProt O89049, sequence (O89049 whole entry, looked up): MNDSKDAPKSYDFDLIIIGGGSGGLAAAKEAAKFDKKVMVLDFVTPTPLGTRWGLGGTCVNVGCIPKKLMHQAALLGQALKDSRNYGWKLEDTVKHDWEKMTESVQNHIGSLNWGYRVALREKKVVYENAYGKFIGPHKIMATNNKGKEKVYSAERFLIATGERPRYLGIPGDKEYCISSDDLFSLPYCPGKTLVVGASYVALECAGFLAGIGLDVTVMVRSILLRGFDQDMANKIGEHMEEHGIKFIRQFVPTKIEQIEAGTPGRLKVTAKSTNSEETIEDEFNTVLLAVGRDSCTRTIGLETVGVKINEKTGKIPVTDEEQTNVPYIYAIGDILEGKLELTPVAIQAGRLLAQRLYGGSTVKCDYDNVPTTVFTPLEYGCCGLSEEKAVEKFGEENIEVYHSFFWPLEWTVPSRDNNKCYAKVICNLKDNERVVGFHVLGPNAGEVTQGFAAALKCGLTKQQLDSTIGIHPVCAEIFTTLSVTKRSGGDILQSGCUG
# Assay: qHTS Assay for Inhibitors of Mammalian Selenoprotein Thioredoxin Reductase 1 (TrxR1): qHTS; note: nearly all actives have a fitted effect of over 65% in size
# Conditions: recombinant rTrxR1, NADPH fluorescence consumption, selenite substrate; series mostly up to 114 µM
# Procedure, shortened: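 Rat TrxR1 (90 nM in the dispensed reagent) was pre-reduced with 400 uM NADPH for 5 min at room temperature, then incubated with compound for 15 min. After 400 uM selenite was added, NADPH fluorescence (Ex 340/Em 450 nm) was followed for 8 min.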
# Potency is the fitted concentration of half-maximal effect; tags give direction and shape of the fitted curve.
row,SMILES,Potency
1,CCOc1cccc(-c2nn3c(-c4ccco4)nnc3s2)c1,"inconclusive: 25.1 µM [inhibitor, partial curve]"
2,COc1cc(NC(=S)Nc2ccc(Br)cc2Cl)c(OC)cc1Cl,"inconclusive: 20 µM [inhibitor, full curve]"
3,COc1cccc(CNC(=O)CN(c2cc(C)cc(C)c2)S(=O)(=O)c2c(C)noc2C)c1,inactive
4,O=C(c1ccc(Cl)cc1)C1CCCN(Cc2cnn(-c3ccccc3)c2)C1 (stereo not given),inactive
5,S=C(N/N=C/c1ccccc1)N1CCOCC1,"inconclusive: 50.1 µM [inhibitor, single point]"
6,COc1ccc(-c2csc(N(CCCN(C)C)C(=O)c3cc(OC)c(OC)c(OC)c3)n2)cc1,"inconclusive: 79.4 µM [inhibitor, single point]"
7,O=c1[nH]c(=S)[nH]cc1Oc1ccc(Br)cc1Br,"inconclusive: 44.7 µM [inhibitor, partial curve]"
8,O=C(CSc1nnnn1-c1ccc(F)cc1)c1ccc(O)c(O)c1,inactive
9,O=C(O)c1ccccc1C(=O)N1CC=C(c2ccccc2)CC1,"inconclusive: 56.2 µM [inhibitor, single point]"
10,C=CCNC(=O)COc1coc(CN2CCN(C(=O)c3ccco3)CC2)cc1=O,"inconclusive: 70.8 µM [inhibitor, single point]"
11,O=C(Cn1ncc(Cl)c(Cl)c1=O)NC1CCS(=O)(=O)C1 (stereo not given),active: 12.6 µM
12,COc1ccccc1CNC(=O)COC(=O)c1cc(-c2ccco2)nc2ccccc12,"inconclusive: 28.2 µM [inhibitor, single point]"
13,O=C(c1cc(-c2ccco2)on1)N1CCc2ccccc2C1,active: 31.6 µM
14,O=S(=O)(Cc1ccccc1)N1CCC(N2CCN(c3ccccc3)CC2)CC1,"inconclusive: 39.8 µM [inhibitor, single point]"
15,O=C(O)CC(NC(=O)C12CC3CC(CC(C3)C1)C2)c1cccc(Cl)c1 (stereo not given),inactive
16,CCOc1ccc(CCNC(=O)COC(=O)/C=C/c2ccc(C)o2)cc1OCC,"inconclusive: 89.1 µM [inhibitor, single point]"
17,O=C(C(Cl)c1ccccc1)N1CCCC1 (stereo not given),active: 20 µM
18,C[n+]1ccccc1/C=C/c1ccccc1Cl,"inconclusive: 79.4 µM [inhibitor, partial curve]"
19,N#CC1=C2SCN(c3ccccc3)CN2C(=O)CC1c1ccccc1Cl (stereo not given),"inconclusive: 17.8 µM [inhibitor, partial curve] and inconclusive: 89.1 µM [inhibitor, single point]"
20,CCOC(=O)C1=C(C)N=c2s/c(=C/c3ccco3)c(=O)n2C1c1cccc(OC)c1 (stereo not given),"inconclusive: 70.8 µM [inhibitor, single point]"
21,O=C(/C=C/c1ccco1)Nc1ccc(C(=O)N2CCOCC2)cc1,active: 39.8 µM
22,C#CCOc1c(Cl)cc(C2C3=C(CCCC3=O)N(CC(=O)O)C3=C2C(=O)CCC3)cc1OC,"inconclusive: 20 µM [inhibitor, single point]"
23,COc1ccc(NC(=O)CCCS(=O)(=O)c2nc(-c3ccccc3OC)cc(C(F)(F)F)n2)c(OC)c1,"inconclusive: 15.8 µM [inhibitor, full curve, poor fit]"
24,Cc1c(NC(=O)c2cc(-c3ccccc3)nc3ccccc23)c(=O)n(-c2ccccc2)n1C,inactive
25,CNC(=S)Nc1ccc(OC)c(OC)c1,"inconclusive: 39.8 µM [inhibitor, partial curve, poor fit]"

row,SMILES,Potency
1,Cc1ccc(-c2cc(N)n(-c3ccc(F)cc3)n2)cc1,inactive
2,CC(C)NC(=O)C(=O)NCCCN1CCOCC1,inactive
3,COc1ccc(NC(=O)c2cc(C3CC3)nc3c2c(C)nn3-c2ccccc2)cc1,inactive
4,CN(C)c1ccc(N=Nc2ccc(S(=O)(=O)O)cc2)cc1,inactive
5,CCCCOc1ccc(C(=O)Nc2cccc(-c3nc4cccnc4s3)c2)cc1,inactive
6,Cn1c(=O)[nH]c(=O)c2c1nc([N+](=O)[O-])n2Cc1ccccc1,active: 6.31 µM
7,COc1ccc(Cc2nnc(NS(=O)(=O)c3ccc(Cl)cc3)s2)cc1OC,inactive
8,O=C(O)C1CC=CCC1C(=O)NC1CCCCC1 (stereo not given),inactive
9,Cc1cccc(/C=C2\CS/C(=C\c3cccc(C)c3)C2=O)c1,"inconclusive: 2.51 µM [inhibitor, full curve]"
10,Cc1ccc2nc(N3C(=O)C(O)=C(C(=O)c4ccco4)C3c3cccs3)sc2c1 (stereo not given),"inconclusive: 7.94 µM [inhibitor, partial curve, poor fit]"
11,Cc1cccnc1NCc1ccc(O)c2ncccc12,"inconclusive: 3.16 µM [inhibitor, full curve]"
12,CCCCCS(=O)(=O)c1oc(-c2cccs2)nc1S(=O)(=O)c1ccc(C)cc1,active: 1.58 µM
13,O=C(Nc1ccc([N+](=O)[O-])cc1)c1ccc(Cn2cc([N+](=O)[O-])cn2)cc1,inactive
14,O=C(NC(=S)Nc1ccccc1[N+](=O)[O-])c1cncc(Br)c1,"inconclusive: 20 µM [inhibitor, full curve, poor fit]"
15,CC(C)CCNC(=O)c1cc(-c2ccco2)nc2ccccc12,inactive
16,Cc1cc(=S)cc(C)n1CCCn1ccnc1,"inconclusive: 4.47 µM [inhibitor, partial curve, poor fit]"
17,O=C1c2oc3ccccc3c(=O)c2C(c2ccccc2)N1Cc1ccc2c(c1)OCO2 (stereo not given),inactive
18,CC(=O)c1cccc(NC(=O)C(C)OC(=O)c2cc(C)oc2C)c1 (stereo not given),"inconclusive: 70.8 µM [inhibitor, partial curve]"
19,COc1ccc(NC(=S)NCc2ccc(F)cc2)cc1,inactive
20,CCCc1nnc(SCC(=O)N2CCOCC2)n1CCCOC,inactive
21,CCOC(=O)CNC1CC(=O)N(c2ccc(Br)cc2)C1=O (stereo not given),active: 28.2 µM
22,O=C(CCC(=O)Nc1ccc(F)cc1)N/N=C/c1cccs1,"inconclusive: 89.1 µM [inhibitor, single point]"
23,CC1(C)Cc2c(cnn2-c2ccccc2)C(=O)/C1=N\NC(=O)c1ccccc1N,inactive
24,CCN(CC)S(=O)(=O)c1ccc2nc(CCl)[nH]c2c1,"inconclusive: 35.5 µM [inhibitor, partial curve, poor fit]"
25,CC(NC(=O)c1cc(=O)[nH]c2ccccc12)c1ccc(F)cc1F (stereo not given),"inconclusive: 89.1 µM [inhibitor, partial curve, poor fit]"

row,SMILES,Potency
1,Cc1ccccc1NC(=O)C(=O)NCCCN1CCOCC1,inactive
2,COC(=O)C1Cc2c([nH]c3ccccc23)CN1 (stereo not given),"inconclusive: 20 µM [inhibitor, partial curve]"
3,Cc1cc2ccccn2c1C(=O)c1cccc([N+](=O)[O-])c1,inactive
4,CN(CC1CCOCC1)C(=O)CC1C(=O)NCCN1Cc1cccc(F)c1 (stereo not given),"inconclusive: 44.7 µM [inhibitor, partial curve]"
5,CCOC(=O)c1cccc(NC(=O)/C=C/c2cccc([N+](=O)[O-])c2)c1,inactive
6,COc1ccc(CC(=O)Nc2cccc(-c3cn4ccccc4n3)c2)cc1,inactive
7,C=C1CC2(CC(c3ccccc3)OC(c3ccccc3)C2)OC1=O (stereo not given),inactive
8,C=CCNC(=O)C1CC2Cn3c(nc4ccccc43)C2N1C (stereo not given),"inconclusive: 50.1 µM [inhibitor, partial curve]"
9,Cc1cc(Cl)ccc1OCc1n[nH]c(=S)n1C1CCCCC1,inactive
10,COc1cc(C2Oc3ccccc3C=C2[N+](=O)[O-])cc(OC)c1OC (stereo not given),"inconclusive: 14.1 µM [inhibitor, full curve, poor fit]"
11,O=C(NCCCn1ccnc1)C(=O)NCC(c1cccnc1)N1CCN(c2ccc(F)cc2)CC1 (stereo not given),"inconclusive: 28.2 µM [inhibitor, single point]"
12,C=CCn1c(-c2cccc(Cl)c2)n[nH]c1=S,"inconclusive: 3.16 µM [inhibitor, partial curve, poor fit]"
13,C1=CN2CC=Cc3cc(/C=C/c4ccnc5ccccc45)cc(c32)C1,"inconclusive: 50.1 µM [inhibitor, partial curve, poor fit]"
14,CCCCc1nc(N2CCOCC2)c(C#N)c2c1CCCC2,inactive
15,COc1ccc(NS(=O)(=O)c2cc(NC(=O)[C@H](C)NC(N)=O)ccc2N2CCCC2)cc1,inactive
16,COc1cc(-c2cc(C(=O)Nc3ccc(S(=O)(=O)Nc4ncccn4)cc3)c3ccccc3n2)cc(OC)c1OC,inactive
17,CCOC(=O)CSc1nc2ccccc2n2cnnc12,"inconclusive: 28.2 µM [inhibitor, partial curve, poor fit]"
18,FC(F)(F)c1nc(N2CCCC2)ncc1-c1nnnn1-c1ccc(Cl)cc1,inactive
19,Cc1ccccc1N1C(S)=C(C#N)C(=O)NC1c1cccs1 (stereo not given),inactive
20,CCSC1=NC(C)(C)C=C(/C=C/c2ccc(Cl)cc2Cl)N1,"inconclusive: 25.1 µM [inhibitor, single point]"
21,CCCCn1c(=O)[nH]c(=O)c2c1nc(-c1ccc(-c3ccccc3Br)o1)n2CCOC,"inconclusive: 79.4 µM [inhibitor, partial curve, poor fit]"
22,CCN(CC)c1ccc(C(=C2C=CC(=[N+](CC)CC)C=C2)c2ccc(S(=O)(=O)O)cc2S(=O)(=O)[O-])cc1,"inconclusive: 44.7 µM [inhibitor, partial curve]"
23,O=C(NC(Cc1ccccc1)C(=O)O)NC12CC3CC(CC(C3)C1)C2 (stereo not given),inactive
24,O=C(c1nc2nc(-c3ccc(Cl)cc3)cc(C(F)(F)F)n2n1)N1CCOCC1,"inconclusive: 89.1 µM [inhibitor, partial curve, poor fit]"
25,CCCNC(=S)Nc1ccc2nc(-c3ccccn3)c(-c3ccccn3)nc2c1,"inconclusive: 28.2 µM [inhibitor, full curve]"
